# Values joined by “and” are separate entries in the source; they are usually repeats but may differ in a detail not shown here. Equal values may be shown once. The campaign covered roughly 120,000 compounds. About 5,300 (4.4%) were called active. Inconclusive results, whose numbers are uncertain, are shown with a selection of clear calls. Calls come from the whole dose curve; as a rule, active = well fitted inhibition curve with a large enough effect; inconclusive = small, poorly fitted or top-dose-only effect; inactive = no such curve, though single readings can be large or run the other way. Where the call is inconclusive, the potency comes from a doubtful curve fit.
# Experiment: qHTS Primary assay for Inhibitors of Plasmodium falciparum Dd2 growth in vitro; note: nearly all actives have a fitted effect of over 65% in size;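 for activity, negative = inhibition: plate controls were DMSO vehicle for no effect and reference drug for full effect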
# Settings: P. falciparum Dd2 growth, SYBR Green, 72 h; activity, negative = inhibition: at 28.9 µM (top of the series) unless noted; series mostly up to 28.9 µM
# In short: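 Infected erythrocytes (Dd2, 0.3% parasitemia, 2.5% hematocrit final) are added to compound in RPMI-1640/Albumax II medium, grown 72 h at 37C in low oxygen, then lysed with saponin/Triton-X containing SYBR Green and read by fluorescence.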
# Potency is the fitted concentration of half-maximal effect; tags give direction and shape of the fitted curve.
SMILES,Potency,"activity, negative = inhibition"
OC1(c2csc(CN3CCOCC3)n2)CCN(CC2CCCCC2)CC1,"inconclusive: 31.6 µM [inhibitor, single point]",–
Cc1ccc(C)c(N2CCN(S(=O)(=O)c3ccc4c(c3)C(C(C)C)C(=O)N4)CC2)c1 (stereo not drawn),"inconclusive: 7.94 µM [inhibitor, partial curve, poor fit]",–
CCCN(C)c1nccnc1OC1CCN(C(=O)C2CCCCC2)C1 (stereo not drawn),"inconclusive: 8.91 µM [inhibitor, partial curve]",–
COc1ccc(-c2[nH]c(-c3ccc(Cl)cc3)nc2SCC(=O)NCC2CCCO2)cc1 (stereo not drawn),"inconclusive: 11.2 µM [inhibitor, single point]",–
CCCCn1cnc2cc(NCc3ccccc3Cl)ccc21,"inconclusive: 17.8 µM [inhibitor, single point]",–
CC(=O)N1CCCc2cc(S(=O)(=O)N3CCCC(C(=O)N4CCN(c5ccccc5)CC4)C3)ccc21 (stereo not drawn),"inconclusive: 17.8 µM [inhibitor, single point]",–
Cc1ccc(S(=O)(=O)n2nc(-c3ccc(Cl)cc3)nc2NCc2ccc(F)cc2)cc1,"inconclusive: 5.01 µM [inhibitor, partial curve, poor fit]",–
O=C(CC1CCN(C(=O)c2cccc(F)c2)C1)NCc1ccccc1 (stereo not drawn),inactive,–
COc1cccc(NC(=O)Cn2c(N3CCCCC3)nc(C)c(C)c2=O)c1,"inconclusive: 11.2 µM [inhibitor, single point]",–
COCCNC(=O)[C@H]1C[C@H](Oc2ccccc2)CN1C(=O)c1ccccc1OC,"inconclusive: 0.794 µM [inhibitor, full curve]",–
COc1ccc(NC(=O)Cn2c(-c3ccccc3)nc(C)cc2=O)cc1,"inconclusive: 5.01 µM [inhibitor, partial curve, poor fit]",–
O=C(Nc1ccc(-c2nnc3n2CCCC3)cc1)c1ccc2ccccc2n1,active: 1 µM,–
O=C1Nc2ccccc2CC12CCN(Cc1ccc(F)cc1)CC2,"inconclusive: 11.2 µM [inhibitor, partial curve] and inconclusive: 3.16 µM [inhibitor, full curve]",–
CCCn1cc(C2CCN(S(=O)(=O)c3c(Cl)cccc3Cl)CC2)c2ccccc21,"inconclusive: 12.6 µM [inhibitor, partial curve, poor fit]",–
O=C(NCCCN1CCOCC1)c1ccc(-c2ccc(N3CCCCCC3)nc2)cc1,"inconclusive: 3.55 µM [inhibitor, partial curve, poor fit]",–
CCOC(=O)C1=C(CN2CCN(c3ccccc3OC)CC2)NC(=O)NC1c1ccccc1 (stereo not drawn),"inconclusive: 14.1 µM [inhibitor, single point]",–
Cc1cc(C)cc(NC(=O)N2CCC(CN3CCOCC3)CC2)c1,inactive,–
COc1ccc(CN2C[C@@H]3[C@H](C2)N(CC(C)C)C(=O)C(C)(C)[S+]3(=O)[O-])cc1O,inactive,–
Cc1ccc(NC(=O)N2CCCC(c3noc(COc4ccccc4)n3)C2)cc1C (stereo not drawn),"inconclusive: 11.2 µM [inhibitor, partial curve, poor fit]",–
CN(Cc1ccc2nsnc2c1)C(=O)c1ccc(N2CCCC2=O)cc1,inactive,–
CC(C)(C)c1ccc(C(=O)NCCc2csc(-c3ccc(Cl)cc3)n2)cc1,inactive,–

SMILES,Potency,"activity, negative = inhibition"
O=[S+]1([O-])NCC2(CCN(Cc3cccs3)CC2)Oc2ncccc21,"inconclusive: 7.94 µM [inhibitor, partial curve, poor fit]",–
O=C(Nc1cccc(C(F)(F)F)c1)c1cnn(-c2cccc(F)c2)c1C1CCNCC1,active: 11.2 µM,–
CN1CCC(Cn2ccc3c(N4CCOCC4)nc(-c4cccc(N[S+](C)(=O)[O-])c4)cc32)CC1,"inconclusive: 2.51 µM [inhibitor, single point]",–
CCOC(=O)c1c(C)oc2nc(C)nc(NCC3CCN(Cc4ccc(C)cc4)CC3)c12,active: 7.08 µM,–
O=C(NCC1CC1)c1cccc(OC2CN(CC3CC=CCC3)C2)c1 (stereo not drawn),"inconclusive: 0.447 µM [inhibitor, full curve, poor fit]",–
CC1Cc2ccccc2N1C(=O)CSc1nc2ccc(NC(=O)COc3ccccc3)cc2s1 (stereo not drawn),"inconclusive: 8.91 µM [inhibitor, partial curve, poor fit]",–
Cc1cc2cc(-c3c(C)noc3C)nc(-c3ccccc3)c2o1,"inconclusive: 31.6 µM [inhibitor, single point]",–
O=C(NCc1ccc2c(c1)OCO2)[C@@H]1C[C@@H](c2ccc(F)cc2)N(CCOc2ccccc2)C1,"inconclusive: 10 µM [inhibitor, single point]",–
COc1ccc(-c2nc(C(C)C)nc3c2CCN(C(=O)c2cccc(OC)c2)CC3)cc1,"inconclusive: 5.01 µM [inhibitor, partial curve, poor fit]",–
Cn1cc(C#N)cc1C(=O)N1CCC2(CCC(=O)N(CCc3cnc[nH]3)C2)CC1,inactive,–
COc1ccccc1C(=O)N[C@@H]1CN(Cc2ccccn2)C[C@H]1CN(C)C,"inconclusive: 12.6 µM [inhibitor, single point]",–
CN1CC(=O)N(c2cccc(F)c2)Cc2c1ncnc2N1CCOCC1,–,inconclusive: -60.9% [inhibitor]
CCc1ccc(C(=O)c2cn(CC(=O)Nc3cccc(OC)c3)c3cc4c(cc3c2=O)OCO4)cc1,"inconclusive: 20 µM [inhibitor, single point]",–
O=c1n(-c2ccc(Cl)cc2)nc2n1CCN(CC1CC1)C2,–,inconclusive: -64.6% [inhibitor] [at 44.1 µM]
C[C@H]1[C@@H]2[C@H]3OC(=O)[C@@H](C)[C@@H]3CC[C@@]2(C)CC[C@@H]1NS(C)(=O)=O,"inconclusive: 7.08 µM [inhibitor, partial curve, poor fit]",–
COc1ccccc1OCCNC(=O)CC1=C2CCCCC2N(Cc2ccccc2)C1=O (stereo not drawn),"inconclusive: 10 µM [inhibitor, single point]",–
O=C(c1cnc2n1CCN(CCc1ccccc1)CC2)N1CCC(c2ccccc2)CC1,"inconclusive: 1.78 µM [inhibitor, full curve]",–
Cc1ccc(Nc2c(-c3ccc(C)s3)nc3ccccn23)cc1,"inconclusive: 15.8 µM [inhibitor, single point]",–
O=C1Cc2c(-c3ccsc3)n[nH]c2CN1Cc1ccccc1,active: 5.62 µM,–
O=C(CN1CCCC1=O)N[C@H]1CN(Cc2ccccc2F)C[C@@H]1C1CC1,inactive,–
CCN1c2cc(C(=O)Nc3ccc(OC)c(F)c3)ccc2C(=O)N2CCCCC21 (stereo not drawn),inactive,–

SMILES,Potency,"activity, negative = inhibition"
O=C(NCc1ccccc1)c1ccc(CN2C(=O)NC3(CCS(=O)(=O)CC3)C2=O)cc1,inactive,–
CN1CCC(OC2CCN(C(=O)c3ccc(C(F)(F)F)cc3)CC2)CC1,"inconclusive: 14.1 µM [inhibitor, single point]",–
Cc1ccc(CN2CCCCCCNC(=O)[C@@H]3C[C@@H](C(=O)N4CCc5ccccc5C4)C[C@@H]32)o1,"inconclusive: 3.98 µM [inhibitor, single point]",–
C#CCNC(=O)C[C@@H]1c2nc(NC(=O)C3CCCCC3)sc2C[C@@H]2[C@](C)(CO)[C@H](O)CC[C@]21C,"inconclusive: 11.2 µM [inhibitor, single point]",–
O=C(COc1ccccc1)c1ccc2c(c1)N(CCCC(=O)N1CCCC1)C(=O)CO2,"inconclusive: 1.78 µM [inhibitor, partial curve, poor fit]",–
CN1CCC2(CC1)Cc1ccccc1CN(C(=O)c1cccc(Cl)c1)C2,"inconclusive: 5.01 µM [inhibitor, partial curve, poor fit]",–
COCCN1C(=O)CC[C@]2(C(=O)NCc3ccccc3Cl)CCCC[C@@H]12,"inconclusive: 0.0708 µM [inhibitor, full curve, poor fit]",–
COc1ccc(-n2nc(C(=O)Nc3cc(C)ccn3)c3c4ccccc4n(C)c3c2=O)cc1,"inconclusive: 1.12 µM [inhibitor, single point]",–
CCCCn1c(=O)n(-c2cc(OC)ccc2OC)c(=O)c2c3c(sc21)CN(C(C)=O)CC3,"inconclusive: 17.8 µM [inhibitor, single point]",–
Cc1cc(Nc2cccc(Cl)c2)nc2ccc(NC(=O)c3cncc(Br)c3)cc12,active: 2.82 µM,–
O=C(Nc1cnc(-c2cccc(Cl)c2)nc1)c1nccc2ccccc12,"inconclusive: 3.98 µM [inhibitor, full curve, poor fit]",–
CN(Cc1ccnc2ccccc12)C(=O)c1cn(Cc2ccc(Cl)cc2)nn1,"inconclusive: 17.8 µM [inhibitor, single point]",–
CCS(=O)(=O)N1C[C@@H](COc2ccncc2)[C@H](c2ccccn2)C1,inactive,–
COc1ccc(CCN2CC(C(=O)N3CCC(CO)CC3)CCC2=O)cc1 (stereo not drawn),"inconclusive: 0.158 µM [inhibitor, full curve, poor fit]",–
COc1ccc(C)cc1NC(=O)C1CCCN(c2ncnc3onc(C)c23)C1 (stereo not drawn),"inconclusive: 11.2 µM [inhibitor, single point]",–
Brc1ccc(CN2CCC(c3nc4ncccc4[nH]3)CC2)cc1,inactive,–
CC(C)CNC(=O)c1cc(C2CC2)nc2onc(C3CCNCC3)c12,"inconclusive: 22.4 µM [inhibitor, single point]",–
Cc1nnc2c(N3CCN(c4ccc(F)cc4)CC3)nc3ccc(C(=O)c4ccccc4)cc3n12,"inconclusive: 2.51 µM [inhibitor, single point]",–
COCCOCc1nc(C2CCN(C(=O)NCc3ccc(F)cc3)CC2)no1,inactive,–
CCCN1CCC2(CCN(C(C)=O)CC2)Oc2ccccc21,"inconclusive: 31.6 µM [inhibitor, single point]",–
CN(C)c1ccc(C(=O)N2CCN3C(=O)N(Cc4ccccc4)C(=O)[C@H]3C2)cc1,"inconclusive: 10 µM [inhibitor, single point]",–

# Source: PubChem BioAssay AID1347417 (National Center for Advancing Translational Sciences (NCATS), 2020)
